Measurements published in patent EP4588489A1, “LINKER FOR ANTIBODY-DRUG CONJUGATE AND USE THEREOF” (priority 2022, dated 2024).

B1: ADC01 (conjugate)
heavy: QVQLVQSGAEVKKPGASVKVSCKASGYTFTTAGMQWVRQAPGQGLEWMGWINTHSGVPKYAEDFKGRVTISADTSTSTAYLQLSSLKSEDTAVYYCARSGFGSSYWYFDVWGQGTLVTVSSASTKGPSVFPLAPSSKSTSGGTAALGCLVKDYFPEPVTVSWNSGALTSGVHTFPAVLQSSGLYSLSSVVTVPSSSLGTQTYICNVNHKPSNTKVDKRV[skipping human IgG1 Fc]
light: DIQMTQSPSSLSASVGDRVTITCKASQDVSTAVAWYQQKPGKAPKLLIYSASYRYTGVPSRFSGSGSGTDFTLTISSLQPEDFAVYYCQQHYITPLTFGQGTKLEIKRTVAAPSVFIFPPSDEQLKSGTASVVCLLNNFYPREAKVQWKVDNALQSGNSQESVTEQDSKDSTYSLSSTLTLSKADYEKHKVYACEVTHQGLSSPVTKSFNRGEC
B2: anti-BCMA-005-Hu178-vcMMAE-D4: vcMMAE (MCE)-conjugated anti-BCMA mAb (conjugate)
heavy: EVQLVESGGGLVKPGGSLRLSCAASGFTFSNFDMAWVRQAPGKGLEWVASIVTRGDDTYYRDSVRGRFTISRDNAKNTQYLQMNSLRAEDTAVYYCARHDYGGPSGWFGYWGQGTLVTVSS[skipping human IgG1 constant region]
light: DIQMTQSPSSLSASVGDRVTITCRASQGFSNNLNWYQQKPGKTPKPLIYYTSNLHSGVPSRFSGSGSGTDYSLTISSLQPEDFATYYCQQDASFPPTFGQGTKLEIKRTVAAPSVFIFPPSDEQLKSGTASVVCLLNNFYPREAKVQWKVDNALQSGNSQESVTEQDSKDSTYSLSSTLTLSKADYEKHKVYACEVTHQGLSSPVTKSFNRGEC
B3: anti-BCMA-005-Hu178-vcMMAF-D4: vcMMAF-conjugated anti-BCMA mAb (conjugate)
heavy: B2 heavy
light: B2 light
B4: anti-BCMA-005-Hu178-glucoseMMAE-NC-D4: Linker-MMAE derivative 1-conjugated anti-BCMA antibody (conjugate)
heavy: B2 heavy
light: B2 light
B5: anti-BCMA-005-Hu178-OMeMMAE-D4: Linker-MMAE derivative 2-conjugated anti-BCMA antibody (conjugate)
heavy: B2 heavy
light: B2 light
B6: anti-BCMA-005-Hu178-CPD-D4 (conjugate)
heavy: B2 heavy
light: B2 light
B7: anri-BCMA-005-Hu178-CPD-D8 (conjugate)
heavy: B2 heavy
light: B2 light

Legend:
[1] = test system: human squamous lung carcinoma cells (EBC-1); test: Subcutaneous xenograft tumor model, EBC-1 (in vivo evaluation 1); parameters: species or system Balb/c nude mice; details: EBC-1 xenograft; one dose via tail vein injection; ADC01 and ADC03 2 and 10 mg/kg, ADC02 and ADC04 10 mg/kg; compared to the control group; FIG. 1
Experimental: (§1) Female Balb/c nude mice, 6-8 weeks old, were subcutaneously injected in the dorsal neck region with 5 × 10^6 human squamous lung carcinoma cells (EBC-1) suspended in 100 µL of PBS. Once the mean tumor volume reached approximately 100 mm^3 (on day 11 post-inoculation), 48 nude mice were randomly divided into 8 groups of 6 according to tumor size, and each mouse was given one dose via tail vein injection: • group 1 was a blank control group; • group 2 was ADC07 (10 mg/kg); • group 3 was ADC01 (2 mg/kg); • group 4 was ADC01 (10 mg/kg); • group 5 was ADC02 (10 mg/kg); • group 6 was ADC03 (2 mg/kg); • group 7 was ADC03 (10 mg/kg); • group 8 was ADC04 (10 mg/kg).
(§2) The body weight and tumor volume of the experimental animals were measured twice weekly, and the survival status of the animals was monitored during the experiment.

[2] = test system: human lung adenocarcinoma cells (Calu-3); test: Subcutaneous xenograft tumor model, Calu-3 (in vivo evaluation 2); parameters: species or system Balb/c nude mice; details: Calu-3 xenograft; one dose via tail vein injection; ADC01 and ADC03 2 and 8 mg/kg, ADC02, ADC04 and ADC07 8 mg/kg; compared to the control group; FIG. 3
Experimental: as §1, with “human” for “human squamous”, “adenocarcinoma” for “carcinoma”, “(Calu-3)” for “(EBC-1)”, “4” for “11”, “(8” for “(10”
as §2

[3] = test system: MM.1S cells, which express BCMA; test: In vitro killing experiment (proliferation inhibition), MM.1S; assay type: cell-based; details: result in words; FIGs. 8 and 9
Excerpt: After MM.1S cells, which express BCMA, were co-cultured for 4 days with serially diluted vcMMAE (MCE)-conjugated anti-BCMA mAb (anti-BCMA-vcMMAE for short); vcMMAF-conjugated anti-BCMA mAb (anti-BCMA-vcMMAF for short); Linker-MMAE derivative 1, Linker-MMAE derivative 2, or CPD-conjugated anti-BCMA (referred to as anti-BCMA-Linker-MMAE derivative 1, anti-BCMA-Linker-MMAE derivative 2, anti-BCMA-CPD-D4, or anti-BCMA-CPD-D8, respectively, for short); CPD-conjugated control IgG1 protein (anti-KLH-CPD-D4 for short); and MMAF or MMAE-conjugated control IgG1 protein (referred to as anti-KLH-MMAF-D4 or anti-KLH-MMAE-D4, respectively, for short), the number of viable cells was determined using cell counting lite (Vazyme #DD1102-01), and proliferation inhibition rates (proliferation inhibition rate %, proliferation inhibition rate = 100 × (number of viable cells in untreated group - number of viable cells in treated group) / (number of viable cells in untreated group - number of viable cells in solution control group)%) were calculated to determine the in vitro killing activity of the candidate molecules.

Row | Molecule | anti-tumor activity [1] | anti-tumor activity [2] | proliferation-inhibiting effect on MM.1S cells [3]
1 | B1 | exhibited anti-tumor activity | exhibited anti-tumor activity | 
2 | B2 |  |  | significant proliferation-inhibiting effects
3 | B3 |  |  | significant proliferation-inhibiting effects
4 | B4 |  |  | significant proliferation-inhibiting effects
5 | B5 |  |  | significant proliferation-inhibiting effects
6 | B6 |  |  | significant proliferation-inhibiting effects
7 | B7 |  |  | significant proliferation-inhibiting effects
